Like-named read-outs stand apart in the source and are kept apart here.
Target: T1, δ-opioid receptor (Rattus norvegicus, UniProt P33533)
T1 construct: the forebrains are homogenized in Tris buffer in a Teflon®-glass homogenizer; from tissue; host or cells: forebrain of male Wistar rats (particulate membrane preparation)
Details: rat brain δ opioid receptor binding, 10 nM solutions of the compounds

T1 sequence (P33533 whole entry): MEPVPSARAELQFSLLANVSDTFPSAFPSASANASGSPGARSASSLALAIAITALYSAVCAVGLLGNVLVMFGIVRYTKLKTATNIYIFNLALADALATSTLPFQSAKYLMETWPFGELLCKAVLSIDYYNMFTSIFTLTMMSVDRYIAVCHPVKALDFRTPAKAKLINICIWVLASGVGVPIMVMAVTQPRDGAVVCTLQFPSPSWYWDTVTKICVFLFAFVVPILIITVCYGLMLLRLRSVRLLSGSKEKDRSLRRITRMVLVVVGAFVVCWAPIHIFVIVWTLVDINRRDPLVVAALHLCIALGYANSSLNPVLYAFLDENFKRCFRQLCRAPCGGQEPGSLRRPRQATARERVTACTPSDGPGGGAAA

Question: `CCNC(=O)c1ccc(C(=C2CC3CCC(C2)N3Cc2ccoc2)c2nnn[nH]2)cc1` [Cpd 144] was tested. Which Ki (DOR binding Ki) did it give?
Answer: 82.5 nM

Question: `CCNC(=O)c1ccc(C(C#N)=C2CC3CCC(C2)N3)cc1` [Cpd 145] was tested. Which Ki (DOR binding Ki) did it give?
Answer: 941 nM

Question: `CCNC(=O)c1ccc(C(=C2CC3CCC(C2)N3CC=C(C)C)c2nnn[nH]2)cc1` [Cpd 147] was tested. Which Ki (read-out: DOR binding Ki) did it give?
Answer: 58.4 nM

Question: How did the Ki (DOR binding Ki) turn out when `CCNC(=O)c1ccc(C(=C2CC3CCC(C2)N3Cc2ccsc2)c2nnn[nH]2)cc1` [Cpd 148] was run?
Answer: 136 nM

Question: For `CCNC(=O)c1ccc(C(=C2CC3CCC(C2)N3CCc2ccccc2)c2nnn[nH]2)cc1` [Cpd 149], which Ki (DOR binding Ki) is on record?
Answer: 192 nM

Question: How did the Ki (DOR binding Ki) turn out when `CCNC(=O)c1ccc(C(=C2CC3CCC(C2)N3Cc2nccs2)c2nnn[nH]2)cc1` [Cpd 150] was run?
Answer: 349 nM

Question: For `CCNC(=O)c1ccc(C(=C2CC3CCC(C2)N3)c2nnn[nH]2)cc1` [Cpd 151], which Ki (DOR binding Ki) is on record?
Answer: 260 nM

Question: How did the Ki (DOR binding Ki) turn out when `CCNC(=O)c1ccc(C(=C2CC3CCC(C2)N3Cc2ccoc2)c2cc(C(=O)O)cc([N+](=O)[O-])c2)cc1` [Cpd 152] was run?
Answer: 0.94 nM

Question: Which Ki (DOR binding Ki) does the source give for `CCNC(=O)c1ccc(C(=C2CC3CCC(C2)N3Cc2ccoc2)c2cccc(CN)c2)cc1` [Cpd 153] here?
Answer: 19.6 nM

Question: For `CCNC(=O)c1ccc(C(=C2CC3CCC(C2)N3Cc2ccccn2)c2cc(C(=O)O)cc([N+](=O)[O-])c2)cc1` [Cpd 154], which Ki (DOR binding Ki) is on record?
Answer: 34.3 nM

Question: With `CCNC(=O)c1ccc(C(=C2CC3CCC(C2)N3CC=C(C)C)c2cc(C(=O)O)cc([N+](=O)[O-])c2)cc1` [Cpd 155] as the compound, how does the Ki (DOR binding Ki) read?
Answer: 3.05 nM

Question: `CCNC(=O)c1ccc(C(=C2CC3CCC(C2)N3CC=C(C)C)c2cccc(CN)c2)cc1` [Cpd 156] was tested. Which Ki (DOR binding Ki) did it give?
Answer: 35.6 nM

Question: For `CCNC(=O)c1ccc(C(=C2CC3CCC(C2)N3CCc2ccccc2)c2cc(C(=O)O)cc([N+](=O)[O-])c2)cc1` [Cpd 157], which Ki (DOR binding Ki) is on record?
Answer: 13.2 nM

Question: With `CCNC(=O)c1ccc(C(=C2CC3CCC(C2)N3CCc2ccccc2)c2cccc(CN)c2)cc1` [Cpd 158] as the compound, how does the Ki (DOR binding Ki) read?
Answer: 163 nM

Question: `CCNC(=O)c1ccc(C(=C2CC3CCC(C2)N3Cc2nccs2)c2cc(C(=O)O)cc([N+](=O)[O-])c2)cc1` [Cpd 159] was tested. Which Ki (DOR binding Ki) did it give?
Answer: 77.4 nM

Question: `CCNC(=O)c1ccc(C(=C2CC3CCC(C2)N3Cc2nccs2)c2cccc(CN)c2)cc1` [Cpd 160] was tested. Which Ki (DOR binding Ki) did it give?
Answer: 86.2 nM

Question: For `CCNC(=O)c1ccc(C(=C2CC3CCC(C2)N3Cc2ccsc2)c2cc(C(=O)O)cc([N+](=O)[O-])c2)cc1` [Cpd 161], which Ki (DOR binding Ki) is on record?
Answer: 1.26 nM

Question: With `CCNC(=O)c1ccc(C(=C2CC3CCC(C2)N3Cc2ccsc2)c2cccc(CN)c2)cc1` [Cpd 162] as the compound, how does the Ki (DOR binding Ki) read?
Answer: 7.23 nM

Question: With `CCNC(=O)c1ccc(C(=C2CC3CCC(C2)N3CC=C(C)C)c2cccc(-c3nnn[nH]3)c2)cc1` [Cpd 163] as the compound, how does the Ki (DOR binding Ki) read?
Answer: 0.99 nM

Question: How did the Ki (DOR binding Ki) turn out when `CCNC(=O)c1ccc(C(=C2CC3CCC(C2)N3Cc2ccco2)c2cccc(-c3nnn[nH]3)c2)cc1` [Cpd 164, N-ethyl-4{(8-furan-2-ylmethyl-8-aza-bicyclo[3.2.1]oct-3-ylidene)-[3-(1H-tetrazol-5-yl)-phenyl]-methyl}-benzamide] was run?
Answer: 1.23 nM

Question: With `CCNC(=O)c1ccc(C(=C2CC3CCC(C2)N3Cc2ccccn2)c2cccc(-c3nnn[nH]3)c2)cc1` [Cpd 165] as the compound, how does the Ki (DOR binding Ki) read?
Answer: 1.62 nM

Question: Which Ki (DOR binding Ki) does the source give for `CCNC(=O)c1ccc(C(=C2CC3CCC(C2)N3CCc2ccccc2)c2cccc(-c3nnn[nH]3)c2)cc1` [Cpd 166] here?
Answer: 23.2 nM

Question: With `CCNC(=O)c1ccc(C(=C2CC3CCC(C2)N3Cc2nccs2)c2cccc(-c3nnn[nH]3)c2)cc1` [Cpd 167] as the compound, how does the Ki (DOR binding Ki) read?
Answer: 8.91 nM

Question: How did the Ki (DOR binding Ki) turn out when `CCNC(=O)c1ccc(C(=C2CC3CCC(C2)N3Cc2cccs2)c2cccc(-c3nnn[nH]3)c2)cc1` [Cpd 168] was run?
Answer: 0.18 nM

Question: Which Ki (DOR binding Ki) does the source give for `CCNC(=O)c1ccc(C(=C2CC3CCC(C2)N3Cc2ccsc2)c2cccc(-c3nnn[nH]3)c2)cc1` [Cpd 169] here?
Answer: 0.74 nM

Question: How did the Ki (read-out: DOR binding Ki) turn out when `CCNC(=O)c1ccc(C(=C2CC3CCC(C2)N3Cc2ccoc2)c2cccc(-c3nnn[nH]3)c2)cc1` [Cpd 170] was run?
Answer: 0.73 nM

Question: How did the Ki (read-out: DOR binding Ki) turn out when `CCNC(=O)c1ccc(C(=C2CC3CCC(C2)N3C(=O)OCC)c2ccc(O)c(OC)c2)cc1` [Cpd 172, 3-[(4-Ethylcarbamoyl-phenyl)-(4-hydroxy-3-methoxy-phenyl)-methylene]-8-aza-bicyclo[3.2.1]octane-8-carboxylic acid ethyl ester] was run?
Answer: 5150 nM

Question: How did the Ki (read-out: DOR binding Ki) turn out when `CCNC(=O)c1ccc(C(=C2CC3CCC(C2)N3C(=O)OCC)c2cc(C)c(O)c(C)c2)cc1` [Cpd 173, 3-[(4-Ethylcarbamoyl-phenyl)-(4-hydroxy-3,5-dimethyl-phenyl)-methylene]-8-aza-bicyclo[3.2.1]octane-8-carboxylic acid ethyl ester] was run?
Answer: 932 nM

Question: `CCNC(=O)c1ccc(C(=C2CC3CCC(C2)N3Cc2nccs2)c2ccc(C(=O)O)cc2)cc1` [Cpd 174] was tested. Which Ki (DOR binding Ki) did it give?
Answer: 2.34 nM

Question: `CCNC(=O)c1ccc(C(=C2CC3CCC(C2)N3Cc2ccsc2)c2cccc(C(=O)O)c2)cc1` [Cpd 175] was tested. Which Ki (DOR binding Ki) did it give?
Answer: 1.31 nM

Question: For `CCNC(=O)c1ccc(C(=C2CC3CCC(C2)N3Cc2ccsc2)c2ccc(C(=O)O)cc2)cc1` [Cpd 176], which Ki (DOR binding Ki) is on record?
Answer: 1.08 nM

Question: `CCNC(=O)c1ccc(C(=C2CC3CCC(C2)N3Cc2ccoc2)c2ccc(C(N)=O)cc2)cc1` [Cpd 177] was tested. Which Ki (DOR binding Ki) did it give?
Answer: 3.91 nM

Question: `CCNC(=O)c1ccc(C(=C2CC3CCC(C2)N3Cc2ccoc2)c2cccc(CO)c2)cc1` [Cpd 178] was tested. Which Ki (DOR binding Ki) did it give?
Answer: 0.15 nM

Question: With `CCNC(=O)c1ccc(C(=C2CC3CCC(C2)N3Cc2ccco2)c2cccc(CO)c2)cc1` [Cpd 179] as the compound, how does the Ki (DOR binding Ki) read?
Answer: 1.53 nM

Question: For `CCNC(=O)c1ccc(C(=C2CC3CCC(C2)N3Cc2ccco2)c2ccc(C(N)=O)cc2)cc1` [Cpd 180], which Ki (DOR binding Ki) is on record?
Answer: 0.98 nM

Question: `CCNC(=O)c1ccc(C(=C2CC3CCC(C2)N3Cc2ccccn2)c2cccc(CO)c2)cc1` [Cpd 181] was tested. Which Ki (DOR binding Ki) did it give?
Answer: 1.74 nM

Question: `CCNC(=O)c1ccc(C(=C2CC3CCC(C2)N3Cc2ccccn2)c2ccc(NS(C)(=O)=O)cc2)cc1` [Cpd 182] was tested. Which Ki (DOR binding Ki) did it give?
Answer: 0.52 nM

Question: For `CCNC(=O)c1ccc(C(=C2CC3CCC(C2)N3Cc2ccccn2)c2ccc(C(N)=O)cc2)cc1` [Cpd 183], which Ki (read-out: DOR binding Ki) is on record?
Answer: 36.9 nM

Question: `CCNC(=O)c1ccc(C(=C2CC3CCC(C2)N3CCc2ccccc2)c2ccc(NS(C)(=O)=O)cc2)cc1` [Cpd 185] was tested. Which Ki (DOR binding Ki) did it give?
Answer: 30.2 nM

Question: With `CCNC(=O)c1ccc(C(=C2CC3CCC(C2)N3Cc2nccs2)c2cccc(CO)c2)cc1` [Cpd 186] as the compound, how does the Ki (DOR binding Ki) read?
Answer: 3.9 nM

Question: With `CCNC(=O)c1ccc(C(=C2CC3CCC(C2)N3Cc2nccs2)c2ccc(NS(C)(=O)=O)cc2)cc1` [Cpd 187] as the compound, how does the Ki (DOR binding Ki) read?
Answer: 1.44 nM

Question: For `CCNC(=O)c1ccc(C(=C2CC3CCC(C2)N3Cc2nccs2)c2ccc(C(N)=O)cc2)cc1` [Cpd 188], which Ki (read-out: DOR binding Ki) is on record?
Answer: 53.9 nM

Question: For `CCNC(=O)c1ccc(C(=C2CC3CCC(C2)N3Cc2ccsc2)c2cccc(CO)c2)cc1` [Cpd 189], which Ki (DOR binding Ki) is on record?
Answer: 14.2 nM

Question: `CCNC(=O)c1ccc(C(=C2CC3CCC(C2)N3Cc2ccsc2)c2ccc(NS(C)(=O)=O)cc2)cc1` [Cpd 190] was tested. Which Ki (DOR binding Ki) did it give?
Answer: 0.219 nM

Question: With `CCNC(=O)c1ccc(C(=C2CC3CCC(C2)N3Cc2ccsc2)c2ccc(C(N)=O)cc2)cc1` [Cpd 191] as the compound, how does the Ki (DOR binding Ki) read?
Answer: 12 nM

Question: Which Ki (DOR binding Ki) does the source give for `CCNC(=O)c1ccc(C(=C2CC3CCC(C2)N3Cc2ccco2)c2ccc(CO)cc2)cc1` [Cpd 192] here?
Answer: 2.74 nM

Question: `CCNC(=O)c1ccc(C(=C2CC3CCC(C2)N3Cc2ccccn2)c2ccc(CO)cc2)cc1` [Cpd 193] was tested. Which Ki (DOR binding Ki) did it give?
Answer: 3.22 nM

Question: Which Ki (read-out: DOR binding Ki) does the source give for `CCNC(=O)c1ccc(C(=C2CC3CCC(C2)N3CC=C(C)C)c2ccc(CO)cc2)cc1` [Cpd 194] here?
Answer: 1.38 nM

Question: How did the Ki (DOR binding Ki) turn out when `CCNC(=O)c1ccc(C(=C2CC3CCC(C2)N3Cc2nccs2)c2ccc(CO)cc2)cc1` [Cpd 195] was run?
Answer: 7.51 nM

Question: `CCN(CC)C(=O)c1ccc(C(=C2CC3CCC(C2)N3C#N)c2ccccc2)cc1` [Cpd 197, 4-[(8-cyano-8-aza-bicyclo[3.2.1]oct-3-ylidene)-phenyl-methyl]-N,N-diethylbenzamide] was tested. Which Ki (DOR binding Ki) did it give?
Answer: 5270 nM

Question: Which Ki (DOR binding Ki) does the source give for `CCN(CC)C(=O)c1ccc(C(=C2CC3CCC(C2)N3C(=N)N)c2ccccc2)cc1` [Cpd 198, 4-[(8-Carbamimidoyl-8-aza-bicyclo[3.2.1]oct-3-ylidene)-phenyl-methyl]-N,N-diethyl-benzamide] here?
Answer: 5.75 nM

Question: For `CCN(CC)C(=O)c1ccc(C(=C2CC3CCC(C2)N3C=O)c2ccccc2)cc1` [Cpd 199], which Ki (DOR binding Ki) is on record?
Answer: 136 nM

Question: How did the Ki (DOR binding Ki) turn out when `CCNC(=O)c1ccc(C(=C2CC3CCC(C2)N3C(=O)Cc2ccccc2)c2cccnc2)cc1` [Cpd 200, N-Ethyl-4-[(8-phenylacetyl-8-aza-bicyclo[3.2.1]oct-3-ylidene)-pyridin-3-yl-methyl]-benzamide] was run?
Answer: 5230 nM

Question: With `CCNC(=O)c1ccc(C(=C2CC3CCC(C2)N3Cc2ccsc2)c2ccc(CO)cc2)cc1` [Cpd 205] as the compound, how does the Ki (DOR binding Ki) read?
Answer: 2.04 nM

Question: Which Ki (DOR binding Ki) does the source give for `CCNC(=O)c1ccc(C(=C2CC3CCC(C2)N3C(=O)c2cccs2)c2cccnc2)cc1` [Cpd 208, N-Ethyl-4-{pyridin-3-yl-[8-(thiophene-2-carbonyl)-8-aza-bicyclo[3.2.1]oct-3-ylidene]-methyl}-benzamide] here?
Answer: 1330 nM
